Sequences with one replicate were seen in a single cluster, so their values are uncertain.
System: ATP
Assay: switch fluorescence ratio, 500 uM ATP over buffer (Cy3 cluster intensity, sum of 5 cycles each) (fold (ratio)); higher = stronger signal-on switching upon ATP binding; sequences stand for … in TCGTCGGCAGCGTCAGATGTGTATAAGAGACAGTTTTTTTTTTTTTTTTTTTTTTTTT…TC
Conditions: aptamer strand: ATP DNA aptamer (quencher-CACCTGGGGGAGTATTGCGGAGGAAGG + anchor), 100 nM annealed; ATP concentration: 500 uM; one replicate
Outline: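 For every switch-domain sequence, the fluorescence ratio is the mean of per-cluster values, each being summed target-cycle Cy3 intensity over summed buffer-cycle Cy3 intensity. Clusters outside 100-1000 RFU were excluded. On a modified Illumina MiSeq flow-cell, the Cy3-labelled switching-strand clusters were annealed to 100 nM quencher-labelled ATP aptamer, imaged in selection buffer and then after 15 min with 500 uM ATP at 22 °C. Five such cycles were run, with NaOH stripping and re-annealing between them.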
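Also: ATP exposure 15 min at 22 °C before imaging.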

Sequence	switch fluorescence ratio
GAACAGTGCG	1.01
TGCTGGTG	1.03
ATAGTGGCT	1.02
ATTTAGCTTT	0.977
GCGCGGGGGC	1.04
AGACGTATAA	1.02
TAAAAATTAG	0.969
AACGATGTGT	0.988
ATAATTGCCT	1.07
TTGCGGTGGT	0.995
GCCCAATTGT	1.03
GAAGTCAGAC	1.12
TATAGTAATT	1
GGAATCACAC	0.965
GCACAGGGAT	1
CGTACGAGAT	1
CAGCCCAGTC	1.05
TTTGAAGATT	1
CATGACCTG	0.942
TTCTTAGCCC	0.893
GTATGGGACA	0.996
ATGTGAGGAA	0.982
TATCGGCGTC	1.04
CGCCGGACGT	1.01
AAGACGGCCC	0.988

Sequence	switch fluorescence ratio
CGGACTAAAG	1.03
AGTCATGACC	1.07
CATAGCAACA	1.74
TAGATTGTCC	1.05
TTCGCACTCA	1.27
TTTTTACATG	1.03
GCTGTATAAA	1.01
GTGGTAGAGA	1.06
ACAAGCTTAA	1
CTAACGGTGC	1.09
GACTTCCGGT	1.16
AAGAAAGAGC	0.967
TACGATATTA	1.05
GAATGATAGT	0.972
GCTGTTAGGT	0.966
CAAAAACGGC	0.988
AAAGCATTAT	1.11
GCGCTTCTGG	1.02
GGGAAAGGCT	0.959
GTTATGGTAG	1
TCGGCATTGG	1.04
TGGCGCGAAC	1.65
GCAACCCCGC	1.25
ACCCGCCGCT	1.29
AAGACAGAAC	1.07

Sequence	switch fluorescence ratio
CCTTGTCTCG	1.09
CCACCTGTCT	1.04
GCCATAAATT	1.06
AGAGATGCGA	0.977
AACCACGGTG	1.92
CATCAGCGGC	2.69
TTCTTGGTTG	1
GAGAGTATCA	1.02
ACTGTCTGCA	1.11
AGTTAGGATT	1
TTTAAGAGGC	1.16
AAAACAGTTA	0.969
ACACAGGTAA	1.05
TCGTCGGGCG	0.991
CGCTTTAAT	1.05
AACTATTTAT	1.03
TGAGGGCGT	1.05
ACGAGAATAT	1.05
ATGGCGCGGA	1.01
CTCAGACGTA	1.01
ATTTACAGT	1.06
GACCAAACGA	1.3
TGCCATGTCC	0.988
TATTGAGCGC	1.03
GCAACGTGTG	0.992

Sequence	switch fluorescence ratio
GAAAACCCAA	1.09
TAAACGGTTG	1.03
AGAGTATGTG	0.953
GGTCTTGACG	0.979
AGTAAGGTAA	1.06
ATTCTGTGAC	1.04
AGGCAGCATT	1
TCGAGGCCGC	1.02
ATTGTTCCTT	1.01
CGTAAATCCC	1.06
GCAATAAGGT	1.08
TGGCCATCGA	0.952
GTGCAACCTA	1.02
GATCGAATGC	1.13
CAGTCGCCGG	0.996
TCTACTTCCT	1.51
ATTTAGTGTC	1.06
GTAAGACTTT	1.3
ATGTAACGGC	1.01
ATTGCCCCTT	1.19
CGGTCTGTGT	0.992
GGGGACGCTC	1.01
GTGAAATCGG	1.04
CCTTTTGAAT	1.01
AACTAGAACA	1.01

Sequence	switch fluorescence ratio
ATACAGAGAT	0.989
GAGTCGGAAC	0.977
AGCTTGGACA	0.976
TGTGAAGGGT	1.02
GTAATCCTAG	0.984
AATTAGTTCC	1.09
CTAGGTAGAT	0.997
CGACTCGCAC	4
TACATCATTT	1.02
AATCGTTCGC	1.06
ATTGTTGGCT	0.977
TTAGCTTGGA	1.01
GGAGCTCTTT	1.02
CCATTAGGTG	2.25
ATTTGGCGAT	1.03
GGTAGAGAAC	1.08
GTTTGGTAAT	0.99
ATAAATCTCG	1.04
CCGTTCATGC	2.78
AAACCCGAGA	1.01
ACATGCATAG	1.01
CCGGGCAGCA	2.07
AGAAGTACTG	1.07
GCCGTTTAGG	0.998
ACAATGTCTT	0.989

Sequence	switch fluorescence ratio
TTGAATTAAA	1
CCTCACAGCG	1.7
AAAAGGGTCA	0.995
ATGACTGCTG	1.04
TAAATAGTTA	0.971
TGGATAGCTT	0.961
ATCACAGA	1.01
CGTTATGGTA	0.956
TAAGATCTTT	0.995
GTAGGTGAAT	1
AATTTTGTCA	0.966
TATATAGGAT	1.06
ACCCAGGATA	1.18
TCTAGCAAAC	3.4
CCTTGCACGA	2.02
CATCTATTGG	0.986
TTTGGCTGAC	1.13
GCTCGCCGCA	1.02
TAAGTCCATA	0.977
CTATCGGGCC	1.02
GCTGGGTATG	1.01
CCCTGAACGT	0.98
GATGCTTTCT	1.01
ACGGGACGTG	0.978
ATATCCATG	1.02

Sequence	switch fluorescence ratio
AGAGTGTGTG	0.958
TGGGTCTCGA	0.983
GAATGGTAGA	1
TCCACTGGCA	1.19
TCGCTTCAAC	1.27
ACCAATGGAG	1.04
GCTCTGGAAA	1.09
TTTCGGTAGG	0.989
TGGTGGGCTA	0.984
ATTCGGGTGC	1.01
GTGTGCGTTG	0.963
GTCTGTAGGT	1.02
TTTGGTACG	0.989
TCGGAGTGAC	1.24
GGCGAAAGAT	0.977
TGCCGCGTGG	1
TGAACGTCGA	1.1
TCTTTGAGGG	0.946
TCTTGCCACG	1.01
TTCATCGCTA	1.5
ATTGCTCCAG	1.05
AGAAGCACAA	1.18
CAAGACTTAA	1.03
GAAAAGAGAA	0.957
TGCGCGGTTG	1.02

Sequence	switch fluorescence ratio
ATCATCGTGG	0.992
GAGCGTAGAA	0.991
GTAGGCATCG	1
CCGTTTGGAG	1.03
TCCTGGATGC	1.29
GCCCGCTGTT	0.998
AAGGTCATGG	1.01
GCCGCATGCG	1.04
GAGCGGGAGC	0.977
TCTAGTACGA	1.1
CCGAGTCTAT	3.89
AGCAACGACC	4.86
TAAGCGAACG	1.13
GCCTTGATAA	0.955
CAAGTTTAAC	1.02
TCGTCCGAAA	1.64
GTCGAACTTA	1.01
AGCTATTACG	1.15
GCTGGCTGTC	0.995
GACTCTTAT	1.05
TATTAGCCGC	1.12
TCGATACTAC	1.37
GAATGTAGTG	0.96
CGTTTATTGC	1.03
AAAAACGTAC	1.81

Reference: the supplement of paper PMC10126150
